Assay in all cases: glycan array binding signal (z-score within array); higher = stronger binding
Conditions in all cases: glycan notation: IUPAC condensed, linker removed

Test [1] addresses Gal(b1-4)GlcNAc(b1-3)Gal(b1-4)GlcNAc(b1-3)Gal(b1-4)GlcNAc(b1-3)Gal(b1-4)GlcNAc(b1-3)Gal(b1-4)GlcNAc(b1-2)[Gal(b1-4)GlcNAc(b1-3)Gal(b1-4)GlcNAc(b1-3)Gal(b1-4)GlcNAc(b1-3)Gal(b1-4)GlcNAc(b1-3)Gal(b1-4)GlcNAc(b1-6)]Man(a1-6)[Gal(b1-4)GlcNAc(b1-3)Gal(b1-4)GlcNAc(b1-3)Gal(b1-4)GlcNAc(b1-3)Gal(b1-4)GlcNAc(b1-3)Gal(b1-4)GlcNAc(b1-2)Man(a1-3)]Man(b1-4)GlcNAc(b1-4)[Fuc(a1-6)]GlcNAc. In short, it runs like this:
(§1)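 Glycan array data were curated from 3228 arrays in the Consortium for Functional Glycomics database and kept only where the protein sequence was available. Glycan names were converted to IUPAC-condensed notation, and columns mapping to the same glycan were averaged. The binding signal is a within-array Z-score, averaged across arrays of the same protein sequence at different concentrations or buffers and across linkers. Negative Z-scores can be read as non-binding.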

In test [2] the target is Gal(b1-4)GlcNAc(b1-3)Gal(b1-4)GlcNAc(b1-3)Gal(b1-4)GlcNAc(b1-3)Gal(b1-4)GlcNAc(b1-3)Gal(b1-4)GlcNAc(b1-3)Gal(b1-4)GlcNAc(b1-2)Man(a1-3)[Gal(b1-4)GlcNAc(b1-3)Gal(b1-4)GlcNAc(b1-3)Gal(b1-4)GlcNAc(b1-3)Gal(b1-4)GlcNAc(b1-3)Gal(b1-4)GlcNAc(b1-3)Gal(b1-4)GlcNAc(b1-2)Man(a1-6)]Man(b1-4)GlcNAc(b1-4)GlcNAc. In short, it runs like this: as §1
In test [3] the target is Gal(b1-4)GlcNAc(b1-3)Gal(b1-4)GlcNAc(b1-3)GalNAc. In short, it runs like this: as §1
Test [4] addresses Gal(b1-4)GlcNAc(b1-3)Gal(b1-4)GlcNAc(b1-3)[Gal(b1-4)GlcNAc(b1-3)Gal(b1-4)GlcNAc(b1-6)]GalNAc. In outline: as §1
The target in test [5] is Gal(b1-4)GlcNAc(b1-3)Gal(b1-4)GlcNAc(b1-6)[Gal(b1-3)]GalNAc. In outline: as §1
In test [6] the target is Gal(b1-4)GlcNAc(b1-3)Gal(b1-4)[Fuc(a1-3)]GlcNAc(b1-3)Gal(b1-4)[Fuc(a1-3)]GlcNAc. In outline: as §1
The target of test [7] is Gal(b1-4)GlcNAc(b1-3)GalNAc. In short, it runs like this: as §1
Test [8] concerns the target Gal(b1-4)GlcNAc(b1-3)[Fuc(a1-3)GlcNAc(b1-6)]Gal(b1-4)Glc. In short, it runs like this: as §1
For test [9], the target named is Gal(b1-4)GlcNAc(b1-3)[Gal(b1-4)GlcNAc(b1-6)]Gal(b1-4)GlcNAc. In short, it runs like this: as §1
For test [10], the target named is Gal(b1-4)GlcNAc(b1-3)[GlcNAc(b1-6)]Gal(b1-4)GlcNAc. In outline: as §1
In test [11] the target is Gal(b1-4)GlcNAc(b1-6)Gal(b1-4)GlcNAc. In outline:
as §1

Test [12] has as its target Gal(b1-4)GlcNAc(b1-6)GalNAc. In short, it runs like this:
as §1

Test [13] addresses Gal(b1-4)GlcNAc(b1-6)[Gal(b1-3)]GalNAc. In short, it runs like this:
as §1

For test [14], the target named is Gal(b1-4)GlcNAc(b1-6)[Gal(b1-4)GlcNAc(b1-3)]GalNAc. In outline:
as §1

The target of the next test is Gal(b1-4)GlcNAc6P. In outline:
as §1

The next test has as its target Gal(b1-6)Gal. In outline:
as §1

Another test has as its target Gal3S(b1-3)GalNAc. In short, it runs like this: as §1
The next test addresses Gal3S(b1-3)GlcNAc. In short, it runs like this:
as §1

The target of test [15] is Gal3S(b1-3)[Fuc(a1-4)]GlcNAc. In short, it runs like this: as §1

This is one part of the list.

B1: PX9961U-pdi-543-24-543 (Parabacteroides distasonis) (protein)
chain: EEPVGEFLPGQVESEENIEGIVTGAYAVLDGYYASDAINSGCSNWQFGDVVSDDAYKGGGGTGDQNQIHLMEIFNANPTGIDFEARWAALYEGIKRCNQAIRLLNGSEVKNKEQRLAEMRFLRGHYYFNLKIIYNQIPWIDETLVDPNEYNKKSNIEFSSDQLWEKILEEFSAAYKVLPESQADYGRPTKMAARAYMAKVYLYQSKWKECLEACDEVIQSGKYELFPDFRNVFLPENDNCSEIIFAIQLSINDGSPNNENGSYGDRLLPPGGPYPVYGFLRPTQNLVNAYKTDVKGLPYNDGKDVSENDYVDVRLDHTLARPNIPFMDVQLYDWTPREASVYGPYSPKKRLVSLNSTYYSPIWPYVNALNFYVIRYADLLLWRAEAAIETGDLETGRKYINMIRERAKNTQHVKTMDQSQDAANYKVGVYDEPFKSKNEAVQALRMERRLEMAHEGIRFFDLVRWGVADEVINAYIAKEKVFRSHLQNAHFVKGKHEYFPIPQSMIDICGTEVMKQNPGY
Take B1: the “glycan array binding signal (z-score)” value was determined as 2.08 in [1]; 1.28 in test [2]; 1.61 in test [3]; 1.19 in test [4]; 2.73 in test [5]; 0.007 in test [6]. The “glycan array binding signal (z-score)” value in test [7] was -0.37; in test [8], 0.418; in test [9], 0.882; in test [10], -0.428; in [11], -0.226; in test [12] it was -0.178. The “glycan array binding signal (z-score)” value in [13] was 0.217; in [14], 0.48; with Gal(b1-4)GlcNAc6P it was -0.434; in the test with Gal(b1-6)Gal, -0.422; with Gal3S(b1-3)GalNAc it was -0.41; with Gal3S(b1-3)GlcNAc, -0.395. In test [15], the “glycan array binding signal (z-score)” value is -0.373.
